{"source": "the supplement of paper PMC8728848", "binders": {"B1": {"name": "AT1G15820(NC) (Arabidopsis thaliana) (protein)", "chain": "MAMAVSGAVLSGLGSSFLTGGKRGATALASGVGDAIAPFSFGSLLGTQLLLMGWVESKRWVDFFNPDSQSVEWATPWSKTAENFANYTGDQGYPGGRFFDPLGLAGKNRDGVYEPDFEKLERLKLAEIKHSRLAMVAMLIFYFEAGQGKTPLGALGL"}}, "experiment_in_all_cases": "glycan array binding signal (z-score within array); higher = stronger binding", "details_in_all_cases": "glycan notation: IUPAC condensed, linker removed", "key": {"[1]": {"biological_target": "Fuc(a1-3)GlcNAc", "summary_of_the_method": "(§1)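 Columns mapping to the same glycan were averaged after glycan names were converted to IUPAC-condensed notation. The data come from 3228 arrays in the Consortium for Functional Glycomics database, limited to those with an available protein sequence. Binding is reported as a within-array Z-score averaged across arrays of one protein sequence and across linkers.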"}, "[2]": {"biological_target": "Fuc(a1-3)[Gal(b1-4)]Glc6S", "summary_of_the_method": "as §1"}, "[3]": {"biological_target": "Fuc(a1-3)[Gal(b1-4)]GlcNAc", "summary_of_the_method": "as §1"}, "[4]": {"biological_target": "Fuc(a1-3)[Gal(b1-4)]GlcNAc(b1-2)Man", "summary_of_the_method": "as §1"}, "[5]": {"biological_target": "Fuc(a1-3)[Gal(b1-4)]GlcNAc(b1-2)Man(a1-3)[Fuc(a1-3)[Gal(b1-4)]GlcNAc(b1-2)Man(a1-6)]Man(b1-4)GlcNAc(b1-4)GlcNAc", "summary_of_the_method": "as §1"}, "[6]": {"biological_target": "Fuc(a1-3)[Gal(b1-4)]GlcNAc(b1-2)Man(a1-3)[Fuc(a1-3)[Gal(b1-4)]GlcNAc(b1-2)Man(a1-6)]Man(b1-4)GlcNAc(b1-4)[Fuc(a1-6)]GlcNAc", "summary_of_the_method": "as §1"}, "[7]": {"biological_target": "Fuc(a1-3)[Gal(b1-4)]GlcNAc(b1-3)Gal(b1-3)[Fuc(a1-4)]GlcNAc", "summary_of_the_method": "as §1"}, "[8]": {"biological_target": "Fuc(a1-3)[Gal(b1-4)]GlcNAc(b1-3)Gal(b1-4)[Fuc(a1-3)]GlcNAc", "summary_of_the_method": "as §1"}, "[9]": {"biological_target": "Fuc(a1-3)[Gal(b1-4)]GlcNAc(b1-3)Gal(b1-4)[Fuc(a1-3)]GlcNAc(b1-3)Gal(b1-4)[Fuc(a1-3)]GlcNAc", "summary_of_the_method": "as §1"}, "[10]": {"biological_target": "Fuc(a1-3)[Gal(b1-4)]GlcNAc(b1-3)GalNAc", "summary_of_the_method": "as §1"}, "[11]": {"biological_target": "Fuc(a1-3)[Gal(b1-4)]GlcNAc(b1-6)GalNAc", "summary_of_the_method": "as §1"}, "[12]": {"biological_target": "Fuc(a1-3)[Gal(b1-4)]GlcNAc(b1-6)[Gal(b1-3)GlcNAc(b1-3)]Gal(b1-4)Glc", "summary_of_the_method": "as §1"}, "[13]": {"biological_target": "Fuc(a1-3)[Gal(b1-4)]GlcNAc6S", "summary_of_the_method": "as §1"}, "[14]": {"biological_target": "Fuc(a1-3)[Gal3S(b1-4)]Glc", "summary_of_the_method": "as §1"}, "[15]": {"biological_target": "Fuc(a1-3)[Gal3S(b1-4)]GlcNAc", "summary_of_the_method": "as §1"}, "[16]": {"biological_target": "Fuc(a1-3)[Gal3S(b1-4)]GlcNAc6S", "summary_of_the_method": "as §1"}, "[17]": {"biological_target": "Fuc(a1-3)[GalNAc(b1-4)]GlcNAc", "summary_of_the_method": "as §1"}, "[18]": {"biological_target": "Fuc(a1-3)[GalNAc(b1-4)]GlcNAc6S", "summary_of_the_method": "as §1"}, "[19]": {"biological_target": "Fuc(a1-4)GlcNAc", "summary_of_the_method": "as §1"}, "[20]": {"biological_target": "Fuc(b1-3)GlcNAc", "summary_of_the_method": "as §1"}, "[21]": {"biological_target": "Gal(a1-2)Gal", "summary_of_the_method": "as §1"}, "[22]": {"biological_target": "Gal(a1-3)Gal", "summary_of_the_method": "as §1"}, "[23]": {"biological_target": "Gal(a1-3)Gal(b1-3)GlcNAc", "summary_of_the_method": "as §1"}, "[24]": {"biological_target": "Gal(a1-3)Gal(b1-3)GlcNAc(b1-2)Man", "summary_of_the_method": "as §1"}, "[25]": {"biological_target": "Gal(a1-3)Gal(b1-3)GlcNAc(b1-2)Man(a1-3)[Gal(a1-3)Gal(b1-3)GlcNAc(b1-2)Man(a1-6)]Man(b1-4)GlcNAc(b1-4)GlcNAc", "summary_of_the_method": "as §1"}, "[26]": {"biological_target": "Gal(a1-3)Gal(b1-3)GlcNAc(b1-3)GalNAc", "summary_of_the_method": "as §1"}, "[27]": {"biological_target": "Gal(a1-3)Gal(b1-3)GlcNAc(b1-6)GalNAc", "summary_of_the_method": "as §1"}, "[28]": {"biological_target": "Gal(a1-3)Gal(b1-3)[Fuc(a1-4)]GlcNAc(b1-2)Man(a1-3)[Gal(a1-3)Gal(b1-3)[Fuc(a1-4)]GlcNAc(b1-2)Man(a1-6)]Man(b1-4)GlcNAc(b1-4)GlcNAc", "summary_of_the_method": "as §1"}, "[29]": {"biological_target": "Gal(a1-3)Gal(b1-4)Glc", "summary_of_the_method": "as §1"}, "[30]": {"biological_target": "Gal(a1-3)Gal(b1-4)GlcNAc", "summary_of_the_method": "as §1"}, "[31]": {"biological_target": "Gal(a1-3)Gal(b1-4)GlcNAc(b1-2)Man", "summary_of_the_method": "as §1"}, "[32]": {"biological_target": "Gal(a1-3)Gal(b1-4)GlcNAc(b1-2)Man(a1-3)[Gal(a1-3)Gal(b1-4)GlcNAc(b1-2)Man(a1-6)]Man(b1-4)GlcNAc(b1-4)GlcNAc", "summary_of_the_method": "as §1"}, "[33]": {"biological_target": "Gal(a1-3)Gal(b1-4)GlcNAc(b1-3)GalNAc", "summary_of_the_method": "as §1"}, "[34]": {"biological_target": "Gal(a1-3)Gal(b1-4)GlcNAc(b1-6)GalNAc", "summary_of_the_method": "as §1"}, "[35]": {"biological_target": "Gal(a1-3)Gal(b1-4)[Fuc(a1-3)]GlcNAc", "summary_of_the_method": "as §1"}, "[36]": {"biological_target": "Gal(a1-3)Gal(b1-4)[Fuc(a1-3)]GlcNAc(b1-2)Man(a1-3)[Gal(a1-3)Gal(b1-4)[Fuc(a1-3)]GlcNAc(b1-2)Man(a1-6)]Man(b1-4)GlcNAc(b1-4)GlcNAc", "summary_of_the_method": "as §1"}, "[37]": {"biological_target": "Gal(a1-3)GalNAc", "summary_of_the_method": "as §1"}, "[38]": {"biological_target": "Gal(a1-3)[Gal(a1-4)]Gal(b1-4)GlcNAc", "summary_of_the_method": "as §1"}, "[39]": {"biological_target": "Gal(a1-4)Gal(b1-3)GlcNAc(b1-2)Man(a1-3)[Gal(a1-4)Gal(b1-3)GlcNAc(b1-2)Man(a1-6)]Man(b1-4)GlcNAc(b1-4)GlcNAc", "summary_of_the_method": "as §1"}, "[40]": {"biological_target": "Gal(a1-4)Gal(b1-4)Glc", "summary_of_the_method": "as §1"}, "[41]": {"biological_target": "Gal(a1-4)Gal(b1-4)GlcNAc", "summary_of_the_method": "as §1"}, "[42]": {"biological_target": "Gal(a1-4)Gal(b1-4)GlcNAc(b1-2)Man(a1-3)[Gal(a1-4)Gal(b1-4)GlcNAc(b1-2)Man(a1-6)]Man(b1-4)GlcNAc(b1-4)GlcNAc", "summary_of_the_method": "as §1"}, "[43]": {"biological_target": "Gal(a1-4)Gal(b1-4)GlcNAc(b1-3)Gal(b1-4)Glc", "summary_of_the_method": "as §1"}, "[44]": {"biological_target": "Gal(a1-4)GlcNAc", "summary_of_the_method": "as §1"}, "[45]": {"biological_target": "Gal(a1-6)Glc", "summary_of_the_method": "as §1"}}, "note": "This is one part of the list."}
{"binder": "B1", "values": [{"measurement": "glycan array binding signal (z-score)", "setting": "[1]", "result": -0.367}, {"measurement": "glycan array binding signal (z-score)", "setting": "[2]", "result": -0.042}, {"measurement": "glycan array binding signal (z-score)", "setting": "[3]", "result": 0.468}, {"measurement": "glycan array binding signal (z-score)", "setting": "[4]", "result": -0.394}, {"measurement": "glycan array binding signal (z-score)", "setting": "[5]", "result": -0.533}, {"measurement": "glycan array binding signal (z-score)", "setting": "[6]", "result": -0.49}, {"measurement": "glycan array binding signal (z-score)", "setting": "[7]", "result": -0.453}, {"measurement": "glycan array binding signal (z-score)", "setting": "[8]", "result": -0.088}, {"measurement": "glycan array binding signal (z-score)", "setting": "[9]", "result": -0.171}, {"measurement": "glycan array binding signal (z-score)", "setting": "[10]", "result": -0.057}, {"measurement": "glycan array binding signal (z-score)", "setting": "[11]", "result": -0.347}, {"measurement": "glycan array binding signal (z-score)", "setting": "[12]", "result": 0.038}, {"measurement": "glycan array binding signal (z-score)", "setting": "[13]", "result": -0.425}, {"measurement": "glycan array binding signal (z-score)", "setting": "[14]", "result": -0.315}, {"measurement": "glycan array binding signal (z-score)", "setting": "[15]", "result": -0.272}, {"measurement": "glycan array binding signal (z-score)", "setting": "[16]", "result": -0.391}, {"measurement": "glycan array binding signal (z-score)", "setting": "[17]", "result": 0.06}, {"measurement": "glycan array binding signal (z-score)", "setting": "[18]", "result": -0.624}, {"measurement": "glycan array binding signal (z-score)", "setting": "[19]", "result": 1.22}, {"measurement": "glycan array binding signal (z-score)", "setting": "[20]", "result": -0.028}, {"measurement": "glycan array binding signal (z-score)", "setting": "[21]", "result": -0.124}, {"measurement": "glycan array binding signal (z-score)", "setting": "[22]", "result": 0.252}, {"measurement": "glycan array binding signal (z-score)", "setting": "[23]", "result": -0.251}, {"measurement": "glycan array binding signal (z-score)", "setting": "[24]", "result": -0.29}, {"measurement": "glycan array binding signal (z-score)", "setting": "[25]", "result": 0.219}, {"measurement": "glycan array binding signal (z-score)", "setting": "[26]", "result": 0.707}, {"measurement": "glycan array binding signal (z-score)", "setting": "[27]", "result": -0.235}, {"measurement": "glycan array binding signal (z-score)", "setting": "[28]", "result": 0.353}, {"measurement": "glycan array binding signal (z-score)", "setting": "[29]", "result": -0.316}, {"measurement": "glycan array binding signal (z-score)", "setting": "[30]", "result": -0.211}, {"measurement": "glycan array binding signal (z-score)", "setting": "[31]", "result": -0.445}, {"measurement": "glycan array binding signal (z-score)", "setting": "[32]", "result": -0.047}, {"measurement": "glycan array binding signal (z-score)", "setting": "[33]", "result": 0.2}, {"measurement": "glycan array binding signal (z-score)", "setting": "[34]", "result": -0.463}, {"measurement": "glycan array binding signal (z-score)", "setting": "[35]", "result": -0.188}, {"measurement": "glycan array binding signal (z-score)", "setting": "[36]", "result": 0.706}, {"measurement": "glycan array binding signal (z-score)", "setting": "[37]", "result": 1.58}, {"measurement": "glycan array binding signal (z-score)", "setting": "[38]", "result": 4.55}, {"measurement": "glycan array binding signal (z-score)", "setting": "[39]", "result": -0.238}, {"measurement": "glycan array binding signal (z-score)", "setting": "[40]", "result": 1.99}, {"measurement": "glycan array binding signal (z-score)", "setting": "[41]", "result": 0.597}, {"measurement": "glycan array binding signal (z-score)", "setting": "[42]", "result": 2.97}, {"measurement": "glycan array binding signal (z-score)", "setting": "[43]", "result": -0.468}, {"measurement": "glycan array binding signal (z-score)", "setting": "[44]", "result": -0.425}, {"measurement": "glycan array binding signal (z-score)", "setting": "[45]", "result": -0.547}]}
